# From PubChem BioAssay AID1345083 (National Center for Advancing Translational Sciences (NCATS), 2018)
# Among all 94,000 compounds or so, about 6,200 (6.6%) were called active. The inconclusive results got no clear call from the source; some entries with a clear call stand among them for comparison. The call rests on the fitted dose curve; in most records, active means well fitted inhibition curve with a large enough effect; inconclusive means small, poorly fitted or top-dose-only effect; inactive means flat fitted curve, though single readings scatter. Potencies beside an inconclusive call are fits to weak or partial responses and may not hold up.
# Assay: Cytotoxic Profiling in HEK 293 Cell Line of Diverse Libraries Using Quantitative High-Throughput Screening; further: nearly all actives have a fitted effect of over 60% in size
# Details: HEK 293 viability, ATP luminescence (CellTiter-Glo), 48-72 h; series mostly up to 115 µM
# Outline: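 HEK 293 cells at 250 cells/well were exposed to compounds by pintool transfer for 48 or 72 hr at 37 degree Celsius, 5% CO2. Viability was read as ATP-coupled luminescence with CellTiter-Glo after 10 min at room temperature.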
# Potency means the concentration at half of the fitted maximal effect; tags describe the fitted curve by direction and shape.
row,SMILES,Potency
1,O=C1NCCCCCCN(C(=O)Nc2ccccc2F)[C@H]2CCC[C@@H]12,inactive
2,Cc1ccc2c(n1)OC(Cn1cccc1)CN(CCC1=CCCCC1)C2=O (centres undefined),active: 89.1 µM
3,CNC(=O)c1ccc2nc(-c3ccccn3)oc2c1,inactive
4,O=C(CCC1CCCC1)N1CCC(c2nc(C3CCOCC3)no2)C1 (centres undefined),"inconclusive: 44.7 µM [inhibitor, partial curve]"
5,O=C(NC1CCN(c2cc(-c3ccccc3)[nH]n2)CC1)c1ccc(Cl)cc1,"inconclusive: 50.1 µM [inhibitor, partial curve, poor fit]"
6,O=C(c1ccc(F)cc1)N1CCN(CCn2nc3n(c2=O)CCCC3)CC1,inactive
7,O=C1c2cnc(-c3cccc(CO)c3)nc2OCCN1c1ccccc1,active: 39.8 µM
8,O=C1CC(c2noc(-c3ccc4c(c3)OCO4)n2)CN1c1ccc(Cl)cc1 (centres undefined),"inconclusive: 39.8 µM [inhibitor, partial curve, poor fit]"
9,CCNC(=O)N1CCCCC1c1nc(CCOc2ccc(F)cc2)no1 (centres undefined),"inconclusive: 17.8 µM [inhibitor, full curve, poor fit]"
10,Cc1ccccc1NC(=O)N1CCC(CCNC(=O)c2cc(F)ccc2F)CC1,inactive
11,CC(C)(C)CC(=O)N[C@H]1C[C@@H](Cc2cc(COc3ccccc3)on2)C1(C)C,"inconclusive: 22.4 µM [inhibitor, partial curve, poor fit]"
12,Cc1ccc(-c2nc(C(=O)N3CCN(c4ccccc4F)CC3)no2)cc1,"inconclusive: 89.1 µM [inhibitor, single point]"
13,COc1ccc(CN2C(=O)CO[C@H](c3ccc(NC(=O)c4ccc(F)cc4)cc3)[C@H]2CO)cc1,"inconclusive: 79.4 µM [inhibitor, single point]"
14,CCc1ccc(CNC(=O)C2CCN(C(=O)c3ncn4c3COC(c3ccc(F)cc3)C4)CC2)cc1 (centres undefined),inactive
15,C[C@H](C(=O)N(C)CCC#N)C1CC[C@@]2(C)Cc3sc(NC(=O)c4cccn4C)nc3[C@@H](C)[C@@H]2[C@H]1O (some centres undefined),"inconclusive: 50.1 µM [inhibitor, partial curve, poor fit]"
16,N#Cc1ccc(CN2CC[C@@H]3C(=O)NCCCCCCN(Cc4ccncc4)[C@@H]3C2)cc1,inactive
17,CNC(=O)[C@H]1C[C@H](Oc2ccccc2)CN1Cc1ccc(OC(C)C)cc1,"inconclusive: 50.1 µM [inhibitor, partial curve, poor fit]"
18,O=C(c1cccc(F)c1)N1CCC2(CC1)CC(N(Cc1ccc(F)cc1)C1CC1)CCO2 (centres undefined),"inconclusive: 44.7 µM [inhibitor, partial curve, poor fit]"
19,O=C(Nc1cccc(Cl)c1)c1cnc2c(c1)N(C(=O)CCc1ccccc1)CCC2,"inconclusive: 50.1 µM [inhibitor, single point]"
20,CNC(=O)CCn1ncc2cc(OC3CCc4cccc(-c5ccnc(C)c5)c43)ccc21 (centres undefined),"inconclusive: 89.1 µM [inhibitor, partial curve, poor fit]"

row,SMILES,Potency
1,Cc1ccc(C(=O)N2CCc3nc(-c4cn[nH]c4)[nH]c3C2)cc1N1CCNC1=O,"inconclusive: 89.1 µM [inhibitor, single point]"
2,O=C(C1CCCN1[S+](=O)([O-])c1cccc(C(F)(F)F)c1)N1CCC(c2ccccc2)CC1 (centres undefined),active: 25.1 µM
3,COCC1CN(C2CCC2)CC12CCN(C(=O)CCc1ccccc1)CC2 (centres undefined),active: 31.6 µM
4,O=C(CN1C(=O)COc2ccc(C(=O)COc3ccccc3F)cc21)Nc1ccc(F)cc1,"inconclusive: 31.6 µM [inhibitor, full curve]"
5,CCn1nccc1C(=O)N1CCC2(CC1)NC(=O)N(c1ccc(F)cc1)N2,"inconclusive: 79.4 µM [inhibitor, partial curve, poor fit]"
6,OC[C@@H]1CNC[C@H]1C1CCN(Cc2ccc(F)c(F)c2)CC1,"inconclusive: 79.4 µM [inhibitor, partial curve, poor fit]"
7,CCn1cc(S(=O)(=O)N[C@@H]2CN(c3ncccn3)C[C@H]2CN(C)C)cn1,inactive
8,Cc1cccc(C(=O)N2CCN(C(=O)c3nnn4c3COC(c3ccccc3)C4)CC2)c1 (centres undefined),"inconclusive: 50.1 µM [inhibitor, partial curve, poor fit]"
9,CN1C[C@H](NCc2cnn(C)c2)CCC[C@@H](C(=O)NCc2cc(F)cc(F)c2)CC1=O,inactive
10,CC(C)(C)CN[C@H]1C[C@@H](Cc2cc(COc3ccccc3)on2)C1(C)C,active: 22.4 µM
11,CC(C)(C)c1ccc(C(=O)NCc2nnc3c(-c4nc(C5CC5)no4)cccn23)cc1,"inconclusive: 50.1 µM [inhibitor, partial curve, poor fit]"
12,CC1(CCCCN2CCOCC2)COc2ccc(C(=O)Nc3cccc(Cl)c3)cc2N1 (centres undefined),"inconclusive: 50.1 µM [inhibitor, partial curve, poor fit]"
13,Cc1nn(-c2ccccc2)c2c1C(C)N(C1CCCN(C(=O)c3ccccc3F)C1)C2=O (centres undefined),"inconclusive: 50.1 µM [inhibitor, partial curve, poor fit]"
14,COc1cc(OC)cc(C(=O)NC2CCN(c3cc(-c4cccs4)[nH]n3)C2)c1 (centres undefined),"inconclusive: 3.16 µM [inhibitor, full curve, poor fit]"
15,Cc1noc(C)c1-c1cc2c(c(-c3ccccc3Oc3ccccc3)c1)C(=O)N(C)C2,"inconclusive: 50.1 µM [inhibitor, partial curve, poor fit]"
16,COc1ccc(Nc2cnc3ccc(-c4cccc(CO)c4)nn23)cc1OC,"inconclusive: 89.1 µM [inhibitor, partial curve, poor fit]"
17,CCOC(=O)C[C@@H]1C[C@@H](C(C)C)[C@H](CNS(=O)(=O)c2ccccc2)C=C1C,active: 63.1 µM
18,Cc1cc(C(=O)NC2CCCc3c2[nH]c2c(Cl)cccc32)c2c(C)noc2n1 (centres undefined),"inconclusive: 50.1 µM [inhibitor, partial curve, poor fit]"
19,O=C(C1CC1)N1CCC2(CC1)CC(N(Cc1ccc(F)cc1)C1CC1)CCO2 (centres undefined),"inconclusive: 79.4 µM [inhibitor, single point]"
